Test results reported in the supplement of paper PMC10126150.
Values marked as one replicate rest on one cluster of the flow cell; about a third of the high ones do not repeat.

Tested on: ATP
Assay: switch fluorescence ratio, 500 uM ATP over buffer (Cy3 cluster intensity, sum of 5 cycles each) (fold (ratio)); higher = stronger signal-on switching upon ATP binding; sequences stand for … in TCGTCGGCAGCGTCAGATGTGTATAAGAGACAGTTTTTTTTTTTTTTTTTTTTTTTTT…TC
Conditions: aptamer strand: ATP DNA aptamer (quencher-CACCTGGGGGAGTATTGCGGAGGAAGG + anchor), 100 nM annealed; ATP concentration: 500 uM; one replicate
Summary of the method: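 Five buffer/ATP imaging cycles were run on Cy3-labelled switching-strand clusters on a modified Illumina MiSeq flow-cell, with NaOH stripping and re-annealing between cycles. In each cycle, clusters annealed to 100 nM quencher-labelled ATP aptamer were imaged in selection buffer, then after 15 min with 500 uM ATP at 22 °C. Per cluster, the fluorescence ratio is summed target-cycle over summed buffer-cycle Cy3 intensity, averaged per switch-domain sequence. Only clusters within 100-1000 RFU were kept.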
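Note: ATP exposure 15 min at 22 °C before imaging.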

In the case of GGTTTTACCG, the switch fluorescence ratio is reported as 0.993.
In the case of TAAACTTTGG, the switch fluorescence ratio is reported as 1.
With GATTGCATGT the switch fluorescence ratio was 0.944.
GGGAATGAAA showed a switch fluorescence ratio of 0.989.
With CACTTTTCAA the switch fluorescence ratio was 0.997.
For CTGATGCAAA, the switch fluorescence ratio was 1.66.
For CGAAGCCATT, the switch fluorescence ratio was 1.12.
For TATATTTGAG, the switch fluorescence ratio was 1.01.
TCATCAATCT showed a switch fluorescence ratio of 1.03.
With GGCACTGAGG the switch fluorescence ratio was 1.05.
For AAGTGGACGA, the switch fluorescence ratio was 0.986.
AACTCTCTGG gave a switch fluorescence ratio of 0.952.
CCGCTGTGGC gave a switch fluorescence ratio of 2.19.
In the case of CATCATTGAG, the switch fluorescence ratio is reported as 1.01.
TACGTTCTGG gave a switch fluorescence ratio of 1.03.
With CATTAGCACG the switch fluorescence ratio was 0.986.
With ATGATTCACG the switch fluorescence ratio was 1.04.
With TTAAGACAAT the switch fluorescence ratio was 1.
Sequence GTGCTCCT has a switch fluorescence ratio of 1.01.
In the case of GGGAGACCGT, the switch fluorescence ratio is reported as 1.03.
GGTCGCCCGG showed a switch fluorescence ratio of 0.988.
In the case of TGGTATCTAA, the switch fluorescence ratio is reported as 0.998.
AAAAACTTTG was tested, and the switch fluorescence ratio was 1.01.
CTGTGAGCGA showed a switch fluorescence ratio of 1.21.
In the case of ATGGCCTGAT, the switch fluorescence ratio is reported as 1.03.
GAGAACCAGC was tested, and the switch fluorescence ratio was 1.
With AATATCTAGG the switch fluorescence ratio was 0.983.
In the case of ACTCATGCCC, the switch fluorescence ratio is reported as 1.1.
AGTGTCAAGG showed a switch fluorescence ratio of 0.997.
With TTAAATTTA the switch fluorescence ratio was 1.04.
For ATCTCCCCAG, the switch fluorescence ratio was 2.24.
In the case of TAGGCTGACC, the switch fluorescence ratio is reported as 0.962.
CGTCAAATTA showed a switch fluorescence ratio of 1.03.
Sequence TCGTAGCACT has a switch fluorescence ratio of 1.55.
Sequence AGCGGTGGGT has a switch fluorescence ratio of 1.02.
Work on ACCAGTCTAC yielded a switch fluorescence ratio of 1.03.
In the case of CGGTCATGAA, the switch fluorescence ratio is reported as 1.01.
For GTGTTGGGAT, the switch fluorescence ratio was 0.964.
Sequence TGCAGGTGTT has a switch fluorescence ratio of 1.47.
Work on AACGCTGTGC yielded a switch fluorescence ratio of 1.46.
For TGGTTCCTTG, the switch fluorescence ratio was 1.04.
For AACGTACCTC, the switch fluorescence ratio was 1.39.
Work on CTAAATGCAT yielded a switch fluorescence ratio of 0.999.
Work on TGCACGCAAG yielded a switch fluorescence ratio of 1.17.
Work on TTCTACTTTA yielded a switch fluorescence ratio of 1.11.
GTTGCTTACT gave a switch fluorescence ratio of 1.
TGAAATTAAT gave a switch fluorescence ratio of 0.98.
In the case of AAACGATGAG, the switch fluorescence ratio is reported as 1.
For GAAATTTAAT, the switch fluorescence ratio was 1.03.
Sequence AGGTCGTACA has a switch fluorescence ratio of 0.994.
Sequence CACGCTCGA has a switch fluorescence ratio of 1.04.
In the case of GGTTACTACA, the switch fluorescence ratio is reported as 1.
TCTAAAGGAG gave a switch fluorescence ratio of 0.971.
For ACTTCTACCT, the switch fluorescence ratio was 1.35.
With GAGTCAGGCG the switch fluorescence ratio was 0.975.
For CTAAGCGTCA, the switch fluorescence ratio was 1.03.
For TTTCTATCTG, the switch fluorescence ratio was 0.993.
TCCTATTATA was tested, and the switch fluorescence ratio was 0.994.
Work on GAGATCTTCA yielded a switch fluorescence ratio of 1.03.
GGCTCAAGCG showed a switch fluorescence ratio of 1.06.
Sequence ATAGAGTCAC has a switch fluorescence ratio of 1.01.
In the case of GCTGGAAT, the switch fluorescence ratio is reported as 1.01.
In the case of TATCCGGGAG, the switch fluorescence ratio is reported as 0.991.
Work on CGGAAACTGA yielded a switch fluorescence ratio of 1.02.
TTTCTGGTG showed a switch fluorescence ratio of 1.02.
Sequence TTACCGAGAC has a switch fluorescence ratio of 3.71.
With AGCGCACCGG the switch fluorescence ratio was 1.02.
AATCCCAGTG was tested, and the switch fluorescence ratio was 2.1.
Sequence CAATATGGAA has a switch fluorescence ratio of 0.98.
With CTATCATCG the switch fluorescence ratio was 0.984.
TCCTCGTCAT showed a switch fluorescence ratio of 2.54.
TCTCTAAATG was tested, and the switch fluorescence ratio was 1.11.
In the case of GGAATAGGCG, the switch fluorescence ratio is reported as 1.02.
Sequence GCCTTAAACG has a switch fluorescence ratio of 1.03.
GTTCTATCCG was tested, and the switch fluorescence ratio was 1.02.
Work on CAGTGGTTCC yielded a switch fluorescence ratio of 1.08.
In the case of CGTATAGCGT, the switch fluorescence ratio is reported as 0.995.
Sequence GAGATGAGGT has a switch fluorescence ratio of 1.02.
Sequence TGTCATGAT has a switch fluorescence ratio of 0.982.
For GAGATTATGT, the switch fluorescence ratio was 0.957.
With AGCGGTAATT the switch fluorescence ratio was 0.997.
With CATGTGGTTT the switch fluorescence ratio was 0.943.
In the case of AATGGGATTT, the switch fluorescence ratio is reported as 0.967.
With TTTACGTAAG the switch fluorescence ratio was 1.05.
TATCGTAACT was tested, and the switch fluorescence ratio was 1.02.
Work on TAGTGGTAGG yielded a switch fluorescence ratio of 1.08.
GAAGAACGG was tested, and the switch fluorescence ratio was 0.994.
Work on AGGTAGCTCC yielded a switch fluorescence ratio of 0.993.
For GCTCTAGGCA, the switch fluorescence ratio was 0.972.
Sequence TGTGTCGGCC has a switch fluorescence ratio of 0.966.
TTCCAGCTAT showed a switch fluorescence ratio of 1.16.
For CCTTGTAGCG, the switch fluorescence ratio was 1.14.
Sequence CACTGGACAT has a switch fluorescence ratio of 1.18.
ACATGTATGG gave a switch fluorescence ratio of 1.02.
For GAGGTAGGGC, the switch fluorescence ratio was 0.921.
With TCGTTGTCTG the switch fluorescence ratio was 1.04.
Work on TAACGTCTGG yielded a switch fluorescence ratio of 1.02.
TTGATCTCTA was tested, and the switch fluorescence ratio was 1.04.
In the case of CGAAAAGCTG, the switch fluorescence ratio is reported as 1.
For AGTATTTGTC, the switch fluorescence ratio was 1.08.
With CACGCTCAGA the switch fluorescence ratio was 1.04.
GGTCTACAAC showed a switch fluorescence ratio of 1.
AGGTAACCGA gave a switch fluorescence ratio of 1.
In the case of CGACGAGTGA, the switch fluorescence ratio is reported as 1.07.
For GATAGCGAAG, the switch fluorescence ratio was 1.03.
ATAGCGGGTG was tested, and the switch fluorescence ratio was 1.
In the case of GAGGATCCTT, the switch fluorescence ratio is reported as 0.955.
CACGGTGGTG gave a switch fluorescence ratio of 0.988.
Work on TTAAGATGTC yielded a switch fluorescence ratio of 1.
Sequence GGACTTGAAG has a switch fluorescence ratio of 1.07.
GAAGTTAAAG showed a switch fluorescence ratio of 0.971.
GTCAAGAAGA showed a switch fluorescence ratio of 0.995.
GAAATTAGGC showed a switch fluorescence ratio of 0.96.
With ACAAGTACAC the switch fluorescence ratio was 1.38.
Work on ACCGAAAACA yielded a switch fluorescence ratio of 1.05.
AGGTGAAAGG was tested, and the switch fluorescence ratio was 0.985.
Work on GTTGTCCATC yielded a switch fluorescence ratio of 1.
In the case of CATTTGCTG, the switch fluorescence ratio is reported as 0.981.
Sequence AACTATCTAT has a switch fluorescence ratio of 1.05.
With GCCGCCTGTA the switch fluorescence ratio was 0.968.
GCCATAACAA was tested, and the switch fluorescence ratio was 0.95.
In the case of CCCACGGAGA, the switch fluorescence ratio is reported as 1.02.
CTGGGGACGG gave a switch fluorescence ratio of 0.973.
In the case of TGTTGGGTA, the switch fluorescence ratio is reported as 0.965.
Work on AAGTTCAGT yielded a switch fluorescence ratio of 1.02.
GTTTACTCAT was tested, and the switch fluorescence ratio was 1.01.
For GGGTCTAAAG, the switch fluorescence ratio was 1.05.
In the case of ACCGGAAAAA, the switch fluorescence ratio is reported as 1.12.
For TGTGTCACCA, the switch fluorescence ratio was 1.41.
Sequence CGGCCGCGTG has a switch fluorescence ratio of 1.06.
Work on CCTACTGAGT yielded a switch fluorescence ratio of 1.1.
In the case of GTAGACGTGG, the switch fluorescence ratio is reported as 0.964.
With ACTTTAGTAT the switch fluorescence ratio was 0.961.
With TACATTCAGT the switch fluorescence ratio was 1.05.
For TCGACCAAAA, the switch fluorescence ratio was 1.09.
AAAGACGATT showed a switch fluorescence ratio of 0.995.
For CACGATTCTG, the switch fluorescence ratio was 1.04.
Sequence TGTACGACGT has a switch fluorescence ratio of 1.03.
TGTAGAATCT was tested, and the switch fluorescence ratio was 0.986.
TTAGCACT showed a switch fluorescence ratio of 1.09.
Work on TATAATGTAG yielded a switch fluorescence ratio of 1.02.
GCTTTTCACC showed a switch fluorescence ratio of 0.97.
Sequence CGTGCTGCCA has a switch fluorescence ratio of 1.02.
With ACCAGAGAGC the switch fluorescence ratio was 0.926.
Sequence ACGTCAGGGA has a switch fluorescence ratio of 1.01.
CGTTTCGATA was tested, and the switch fluorescence ratio was 1.03.
AGTAGGGTCT showed a switch fluorescence ratio of 0.974.
CAGCGTCCGG was tested, and the switch fluorescence ratio was 1.01.
CGGGTGAAG gave a switch fluorescence ratio of 1.
AGGGAAAAT showed a switch fluorescence ratio of 1.
CGTGTTAAG showed a switch fluorescence ratio of 0.984.
Sequence ACTGGGGCAT has a switch fluorescence ratio of 1.11.
Sequence TCAAACCTGT has a switch fluorescence ratio of 1.03.
For GCGGATTGG, the switch fluorescence ratio was 1.03.
For GTAAGTTTAA, the switch fluorescence ratio was 1.02.
In the case of CTGAAAACG, the switch fluorescence ratio is reported as 1.04.
For TATATTAGTG, the switch fluorescence ratio was 1.02.
